In patent US10501552B2, “Multivalent molecules comprising DR5-binding domains” (MacroGenics, Inc., priority 2015, dated 2019):

What was measured:
[1] = test system: COLO205 cells; test: COLO205 xenograft tumor model; assay type: in vivo, mice
Procedure: Briefly, female hCD16A FOX N1 mice (n=7/group) were implanted subcutaneously (SC) with 5 million COLO205 cells suspended in 200 μL of Ham's F12 medium mixed 1:1 with Matrigel on Day 0. The tumors were measured every 3-4 days with calipers. On Study Day 3, the mice were randomized based on tumor size and treated twice a week (intravenous (IV) injection) with the indicated dose levels of test article or vehicle (sterile saline containing 0.5% bovine serum albumin). Tumor volume was monitored over the course of the study and is plotted in FIG. 21 as a group mean±SEM.

[2] = test system: COLO205; test: […]-GLO cell viability assay with vorinostat; assay type: cell-based; conditions: for Average % Ctrl: one day
Procedure: For the first study COLO205 cells were plated at 2×10^4 cells/well (in 96-well plates), and incubated overnight in F12/DMEM media supplemented with 10% FBS. […] Cell viability was determined using Promega […]-GLO® Luminescent Cell Viability Assay (Cat # G5430) essentially as described in the manufacturer's instructions to assay the amount of ATP present, which is a measure of the number of viable cells in the culture. Briefly, an […]-GLO® Reagent was added to the wells and mixed for two minutes to induce lysis and the luminescence was read in a in PerkinElmer EnVision multilabel plate reader.
Cell viability of cells treated with the test articles is normalized to the corresponding negative control (medium±vorinostat) which is set to 100% and reported in Table 12 as % of control for each test agent alone or % control for each test agent in combination with vorinostat. % of control values less than 100% indicate a reduction in viability and reflect the cytotoxicity of the test article alone or in combination with vorinostat.
The Net Gain (Average % Growth Inhibition)=% Medium Ctrl (10% FBS)−% Medium Ctrl (1/10 μM vorinostat), and represents increased cytotoxicity of the test article in combination with vorinostat over cells treated with vorinostat alone.

[3] = test system: BT474; test: […]-GLO cell viability assay with vorinostat; assay type: cell-based; conditions: BT474 (Breast); 1 μg/ml + 10 μM Vorinostat
[4] = test system: MCF7; test: […]-GLO cell viability assay with vorinostat; assay type: cell-based; conditions: MCF7 (Breast); 1 μg/ml + 10 μM Vorinostat
[5] = test system: MDA-MB-361; test: […]-GLO cell viability assay with vorinostat; assay type: cell-based; conditions: MDA-MB-361 (Breast); 1 μg/ml + 10 μM Vorinostat
[6] = test system: Hs746T; test: […]-GLO cell viability assay with vorinostat; assay type: cell-based; conditions: Hs746T (Stomach); 1 μg/ml + 10 μM Vorinostat
[7] = test system: HPAFII; test: […]-GLO cell viability assay with vorinostat; assay type: cell-based; conditions: HPAFII (Pancreas); 1 μg/ml + 10 μM Vorinostat
[8] = test system: A549; test: […]-GLO cell viability assay with vorinostat; assay type: cell-based, human; conditions: A549 (Lung); 1 μg/ml + 10 μM Vorinostat
[9] = test system: ES2; test: […]-GLO cell viability assay with vorinostat; assay type: cell-based; conditions: ES2 (Ovary); 1 μg/ml + 10 μM Vorinostat
[10] = test system: 22RV1; test: […]-GLO cell viability assay with vorinostat; assay type: cell-based; conditions: 22RV1 (Prostate); 1 μg/ml + 10 μM Vorinostat
[11] = test system: DU145; test: […]-GLO cell viability assay with vorinostat; assay type: cell-based, human; conditions: DU145 (Prostate); 1 μg/ml + 10 μM Vorinostat
[12] = test system: LNCap; test: […]-GLO cell viability assay with vorinostat; assay type: cell-based, human; conditions: LNCap (Prostate); 1 μg/ml + 10 μM Vorinostat
[13] = test system: MDA-MB-175VII; test: […]-GLO cell viability assay with vorinostat; assay type: cell-based; conditions: MDA-MB-175VII (Breast); 1 μg/ml + 1 μM Vorinostat
[14] = test system: SKBR3; test: […]-GLO cell viability assay with vorinostat; assay type: cell-based, human; conditions: SKBR3 (Breast); 1 μg/ml + 1 μM Vorinostat
[15] = test system: NCI-N87; test: […]-GLO cell viability assay with vorinostat; assay type: cell-based; conditions: NCI-N87 (Stomach); 1 μg/ml + 1 μM Vorinostat
[16] = test system: AsPC1; test: […]-GLO cell viability assay with vorinostat; assay type: cell-based; conditions: AsPC1 (Pancreas); 1 μg/ml + 1 μM Vorinostat
[17] = test system: Hs700T; test: […]-GLO cell viability assay with vorinostat; assay type: cell-based; conditions: Hs700T (Pancreas); 1 μg/ml + 1 μM Vorinostat
[18] = test system: 786O; test: […]-GLO cell viability assay with vorinostat; assay type: cell-based; conditions: 786O (Kidney); 1 μg/ml + 1 μM Vorinostat
[19] = test system: Calu3; test: […]-GLO cell viability assay with vorinostat; assay type: cell-based; conditions: Calu3 (Lung); 1 μg/ml + 1 μM Vorinostat
[20] = test system: SKOV3; test: […]-GLO cell viability assay with vorinostat; assay type: cell-based; conditions: SKOV3 (Ovary); 1 μg/ml + 1 μM Vorinostat
[21] = test system: PC3; test: […]-GLO cell viability assay with vorinostat; assay type: cell-based; conditions: PC3 (Prostate); 1 μg/ml + 1 μM Vorinostat
[22] = Vorinostat 0 μM, % Medium Ctrl (10% FBS), 10 ng/ml tetravalent molecule or 1 μg/ml DR5 mAb
[23] = Vorinostat 0.1 μM, normalized to medium + vorinostat
[24] = Vorinostat 1 μM, normalized to medium + vorinostat

Row | Molecule | Average % Ctrl [2, 22] [%] | Net Gain (Average % Growth Inhibition) ([2]; Vorinostat 0.1 μM) [%] | Average % Ctrl [2, 23] [%] | Net Gain (Average % Growth Inhibition) ([2]; Vorinostat 1 μM) [%] | Average % Ctrl [2, 24] [%] | Net Gain (Average % Growth Inhibition) [3] [%] | Net Gain (Average % Growth Inhibition) [4] [%] | Net Gain (Average % Growth Inhibition) [5] [%] | Net Gain (Average % Growth Inhibition) [6] [%] | Net Gain (Average % Growth Inhibition) [7] [%] | Net Gain (Average % Growth Inhibition) [8] [%] | Net Gain (Average % Growth Inhibition) [9] [%] | Net Gain (Average % Growth Inhibition) [10] [%] | Net Gain (Average % Growth Inhibition) [11] [%] | Net Gain (Average % Growth Inhibition) [12] [%] | Net Gain (Average % Growth Inhibition) [13] [%] | Net Gain (Average % Growth Inhibition) [14] [%] | Net Gain (Average % Growth Inhibition) [15] [%] | Net Gain (Average % Growth Inhibition) [16] [%] | Net Gain (Average % Growth Inhibition) [17] [%] | other results
1 | DR5 mAb 1 × DR5 mAb 1 Fc diabody (AA): monospecific tetravalent Fc diabody, L234A/L235A Fc; chains SEQ ID NO:132 and 130 (protein, First Polypeptide Chain of an Exemplary DR5 mAb 1 x DR5 mAb 1 Fc diabody L234A/L235A; Second Polypeptide Chain of an Exemplary DR5 mAb 1 x DR5 mAb 1 Fc diabody) chain 1: DIVLTQSPASLAVSLGQRATISCRASKSVSSSGYSYMHWYQQKPGQPPKVLIFLSSNLDSGVPARFSGSGSGTDFTLNIHPVEDGDAATYYCQHSRDLPPTFGGGTKLEIKGGGSGGGGEVKFLESGGGLVQPGGSLKLSCVASGFDFSRYWMSWVRQAPGKGLEWIGEINPDSNTINYTPSLKDKFIISRDNAKNTLYLQMTKVRSEDTALYYCTRRAYYGNPAWFAYWGQGTLVTVSAASTKGEVAACEKEVAALEKEVAALEKEVAALEKL[sequence of human IgG1 Fc with changes omitted] chain 2: DIVLTQSPASLAVSLGQRATISCRASKSVSSSGYSYMHWYQQKPGQPPKVLIFLSSNLDSGVPARFSGSGSGTDFTLNIHPVEDGDAATYYCQHSRDLPPTFGGGTKLEIKGGGSGGGGEVKFLESGGGLVQPGGSLKLSCVASGFDFSRYWMSWVRQAPGKGLEWIGEINPDSNTINYTPSLKDKFIISRDNAKNTLYLQMTKVRSEDTALYYCTRRAYYGNPAWFAYWGQGTLVTVSAASTKGKVAACKEKVAALKEKVAALKEKVAALKE | – | – | – | – | – | – | – | – | – | – | – | – | – | – | – | – | – | – | – | – | tumor regression ([1]; 0.5 and 0.05 mg/kg treatment groups): regress; tumor growth (tumor volume) ([1]; IV twice a week, 0.5, 0.05, 0.005 mg/kg): dramatically inhibit tumor growth
2 | DR5 mAb 1 × DR5 mAb 1 Fc diabody: monospecific tetravalent E-coil/K-coil Fc diabody, wild-type IgG1 Fc; chains SEQ ID NO:128 and 130 (protein, First Polypeptide Chain of an Exemplary DR5 mAb 1 x DR5 mAb 1 Fc diabody; Second Polypeptide Chain of an Exemplary DR5 mAb 1 x DR5 mAb 1 Fc diabody) chain 1: DIVLTQSPASLAVSLGQRATISCRASKSVSSSGYSYMHWYQQKPGQPPKVLIFLSSNLDSGVPARFSGSGSGTDFTLNIHPVEDGDAATYYCQHSRDLPPTFGGGTKLEIKGGGSGGGGEVKFLESGGGLVQPGGSLKLSCVASGFDFSRYWMSWVRQAPGKGLEWIGEINPDSNTINYTPSLKDKFIISRDNAKNTLYLQMTKVRSEDTALYYCTRRAYYGNPAWFAYWGQGTLVTVSAASTKGEVAACEKEVAALEKEVAALEKEVAALEKL[sequence of human IgG1 Fc with C220S (EU numbers) omitted] chain 2: DIVLTQSPASLAVSLGQRATISCRASKSVSSSGYSYMHWYQQKPGQPPKVLIFLSSNLDSGVPARFSGSGSGTDFTLNIHPVEDGDAATYYCQHSRDLPPTFGGGTKLEIKGGGSGGGGEVKFLESGGGLVQPGGSLKLSCVASGFDFSRYWMSWVRQAPGKGLEWIGEINPDSNTINYTPSLKDKFIISRDNAKNTLYLQMTKVRSEDTALYYCTRRAYYGNPAWFAYWGQGTLVTVSAASTKGKVAACKEKVAALKEKVAALKEKVAALKE | 64.2 | 15 | 49.7 | 21 | 42.9 | 71.80 | 4.00 | 87.06 | 49.15 | 55.42 | 30.24 | 88.11 | 6.81 | 2.92 | 20.96 | 15.84 | 42.42 | 38.47 | 10.71 | 49.75 | Net Gain (Average % Growth Inhibition) [18]: 27.69%; Net Gain (Average % Growth Inhibition) [19]: 10.67%; Net Gain (Average % Growth Inhibition) [20]: 60.65%; Net Gain (Average % Growth Inhibition) [21]: 11.22%
3 | DR5 mAb 2 × DR5 mAb 2 Fc diabody: monospecific tetravalent E-coil/K-coil Fc diabody, wild-type IgG1 Fc; chains SEQ ID NO:134 and 136 (protein, First Polypeptide Chain of an Exemplary DR5 mAb 2 x DR5 mAb 2 Fc diabody; Second Polypeptide Chain of an Exemplary DR5 mAb 2 x DR5 mAb 2 Fc diabody) chain 1: DIVMTQSHKFMSTSVGDRVSITCKASQDVNTAVAWYQQKPGQSPKLLIYWASTRHTGVPDRFTGSGSGTDYTLTIKSVQAEDLTLYYCQQHYITPWTFGGGTKLEIKGGGSGGGGKVQLQQSGAELVKPGASVKLSCKASGYTFTEYILHWVKQKSGQGLEWIGWFYPGNNNIKYNEKFKDKATLTADKSSSTVYMELSRLTSEDSAVYFCARHEQGPGYFDYWGQGTTLTVSSASTKGEVAACEKEVAALEKEVAALEKEVAALEKL[sequence of human IgG1 Fc with C220S (EU numbers) omitted] chain 2: DIVMTQSHKFMSTSVGDRVSITCKASQDVNTAVAWYQQKPGQSPKLLIYWASTRHTGVPDRFTGSGSGTDYTLTIKSVQAEDLTLYYCQQHYITPWTFGGGTKLEIKGGGSGGGGKVQLQQSGAELVKPGASVKLSCKASGYTFTEYILHWVKQKSGQGLEWIGWFYPGNNNIKYNEKFKDKATLTADKSSSTVYMELSRLTSEDSAVYFCARHEQGPGYFDYWGQGTTLTVSSASTKGKVAACKEKVAALKEKVAALKEKVAALKE | 75.0 | 24 | 50.8 | 29 | 45.6 | 54.94 | 8.76 | 62.67 | 22.05 | 37.51 | 20.29 | 74.12 | 7.45 | 3.88 | 14.37 | 15.11 | 34.85 | 36.43 | 12.30 | 48.54 | Net Gain (Average % Growth Inhibition) [18]: 18.24%; Net Gain (Average % Growth Inhibition) [19]: 13.22%; Net Gain (Average % Growth Inhibition) [20]: 55.49%; Net Gain (Average % Growth Inhibition) [21]: 10.85%
